In the supplement of paper PMC8728848:
Shown is part of a subset that was picked to be rich in the strongest signals.

Experiments:
Assay in all cases: glycan array binding signal (z-score within array); higher = stronger binding
Conditions in all cases: glycan notation: IUPAC condensed, linker removed
[1] = test system: Fuc(a1-3)[Gal(b1-4)]GlcNAc(b1-3)GalNAc
Outline: (§1)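 The Consortium for Functional Glycomics database supplied 3228 glycan arrays, of which those lacking an available protein sequence were dropped. The binding signal, a within-array Z-score, was averaged across arrays of the same protein sequence and across linkers. Negative scores can be read as non-binding.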

[2] = test system: Fuc(a1-3)[Gal(b1-4)]GlcNAc(b1-2)Man(a1-3)[Fuc(a1-3)[Gal(b1-4)]GlcNAc(b1-2)Man(a1-6)]Man(b1-4)GlcNAc(b1-4)[Fuc(a1-6)]GlcNAc
Outline: as §1

[3] = test system: Fuc(a1-3)[Gal(b1-4)]Glc6S
Outline: as §1

[4] = test system: Fuc(a1-3)[Gal(b1-4)]GlcNAc(b1-2)Man(a1-6)[Gal(b1-4)GlcNAc(b1-2)Man(a1-3)]Man(b1-4)GlcNAc(b1-4)GlcNAc
Outline: as §1

[5] = test system: Fuc(a1-3)[Gal(b1-4)]GlcNAc(b1-4)Gal(b1-4)[Fuc(a1-3)]GlcNAc(b1-4)Gal(b1-4)[Fuc(a1-3)]GlcNAc
Outline: as §1

[6] = test system: Fuc(a1-2)[GalNAc(a1-3)]Gal
Outline: as §1

Fuc(a1-3)GlcNAc = test system: Fuc(a1-3)GlcNAc
Outline: as §1

[7] = test system: Fuc(a1-2)[GalNAc(a1-4)]Gal(b1-4)GlcNAc
Outline: as §1

[8] = test system: Fuc(a1-3)[Gal(b1-4)]GlcNAc(b1-2)Man(a1-3)[Fuc(a1-3)[Gal(b1-4)]GlcNAc(b1-2)Man(a1-6)]Man(b1-4)GlcNAc(b1-4)GlcNAc
Outline: as §1

[9] = test system: Fuc(a1-2)[GalNAc(b1-3)]Gal
Outline: as §1

Substance: M-Ficolin G221F A256V (Homo sapiens) (chain not printed)
- glycan array binding signal (z-score) [1]: -0.345

Substance: NCAM1 (Homo sapiens) (chain not printed)
- glycan array binding signal (z-score) [2]: 1.75

Substance: L-Ficolin (Homo sapiens) (chain not printed)
- glycan array binding signal (z-score) [3]: -0.113
- glycan array binding signal (z-score) [4]: 0.201

Substance: Collectin K1 (Homo sapiens) (chain not printed)
- glycan array binding signal (z-score) [5]: -0.21

Substance: VWF (Homo sapiens) (chain not printed)
- glycan array binding signal (z-score) [6]: 6.05
- glycan array binding signal (z-score) (Fuc(a1-3)GlcNAc): -0.044

Substance: Gal 3 (Homo sapiens) (chain not printed)
- glycan array binding signal (z-score) [4]: -0.304

Substance: H-Ficolin (Homo sapiens) (chain not printed)
- glycan array binding signal (z-score) [3]: 0.305

Substance: M-Ficolin (Homo sapiens) (chain not printed)
- glycan array binding signal (z-score) [7]: -0.096

Substance: Serum Amyloid P component (Homo sapiens) (chain not printed)
- glycan array binding signal (z-score) (Fuc(a1-3)GlcNAc): -0.667

Substance: M-Ficolin Y271F (Homo sapiens) (chain not printed)
- glycan array binding signal (z-score) [8]: -0.377

Substance: Meso764 (Homo sapiens) (chain not printed)
- glycan array binding signal (z-score) [7]: -0.08
- glycan array binding signal (z-score) [9]: -0.748
- glycan array binding signal (z-score) [3]: 0.004
- glycan array binding signal (z-score) [2]: 1.43

Substance: Siglec-2 (Homo sapiens) (chain not printed)
- glycan array binding signal (z-score) [4]: 0.089

Substance: Galectin-8 C-terminal CRD (Homo sapiens) (chain not printed)
- glycan array binding signal (z-score) [7]: -0.317
- glycan array binding signal (z-score) [5]: -0.312

Substance: Thrombomodulin Extracellular (Homo sapiens) (chain not printed)
- glycan array binding signal (z-score) [6]: -0.2
- glycan array binding signal (z-score) [2]: 0.085
- glycan array binding signal (z-score) [1]: 0.11
